# In the RNAGym collection of RNA variant scans (doi:10.1093/nar/gkz1192):
# Read counts are not given, so values of variants with three or more changes are uncertain.
# B1: CPEB3 Ribozyme (parent)
# chain: UAACAGGGGGCCACAGCAGAAGCGUUCACGUCGCAGCCCCUGUCAGAUUCUGGUGAAUCUGCGAAUUCUGCUGUAUAUCUC
# Variants of: B1
# Experiment: self-cleavage, relative activity (ratio to wild type); higher = more cleavage; in vitro, sequencing
# Procedure, shortened: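 Barcoded CPEB3 ribozyme mutants, produced by rounds of error-prone PCR, self-cleaved while being transcribed with T7 RNA polymerase for 5 hours at 37°C and during a subsequent 15 min DNase I step before EDTA was added. Sequencing of template-switched cDNA on Illumina gave cleaved and total reads, and DNA sequencing assigned barcodes to variants. Each variant's relative activity is its cleaved/total read fraction divided by the unmutated ribozyme's fraction, averaged across three batches. A variant needed a minimum of 5 reads.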
row,Variant,self-cleavage
1,C12A A15G C40U,0.72
2,C11A A20U A35U U49C C62U,0.06
3,C11G U26A U58C A64G A65U,0.03
4,C12A A18U A35C U43A U80C,0.55
5,G10A U31C A45G A77U,0.19
6,C11G U25A U41C U43C A64G,0.1
7,C12U A18U A21G U43A,0.25
8,G10C A15G C23U U25C U31A C37U U60C,0.05
9,C12A C17G G24U A35G A64U U80A,0.04
10,C12G U51G U54C A56U G73A,0.24
11,C11G A56G U69A A77G,0.09
12,G10A U25C G73U A75G U80C,0.2
13,G10U A20U A64G,0.24
14,C11G C34G U51G A65G U78C,0.06
15,C11G U76A U78C,0.49
16,C11G U43A A64G U72C,0.41
17,C11A A15G C29U U78C U80A,0.45
18,C12A C17G U31A,0.11
19,C11G C32U C34U G36U A75U,0.04
20,C11U U49C A75G,0.18
21,C11G G33A C37U C81A,0.04
22,C12U A13U C14A C17G U43C U67C,0.08
23,G10U G52U U72A,0.12
24,C11G G19U G53A,0.3

row,Variant,self-cleavage
1,G10A U26G A45G A56G A64C C68A,0.02
2,C11U C29G C32U,0.03
3,C11U U60A C62U,0.06
4,C11U U51G A77U,0.23
5,C11U U58C U69A A77G,0.09
6,C12A A15C A21G U31C A64G,0.36
7,C12A A21G U31C G33A U80A,0.22
8,C11G G19A U25G U78A C81A,0.23
9,C11U U26A U66C,0.14
10,C11G U41C U49C,0.26
11,C11U C12U U48C,0.4
12,C11G A20G C32A A45G U78C U80C,0.04
13,G10A U25C G33U A65U U66C,0.05
14,G10U G36U C50U U60C,0.05
15,C12U A15G U43C U67A,0.08
16,C12A C44U A56G,0
17,C11G A18U A21G U54C U74A,0.05
18,G10C G19U U25C A47G U48A U76A,0.15
19,C11A A13G U25C U26C A65G U80C,0.04
20,C11U A35C U41C G46C A57G U80C,0.09
21,G10A U74C U80A,0.39
22,C12G A18G U51C C71G,0.09
23,C11G A21U A35U A65G U67A,0.02
24,G10A U31A C38U A45G U69C A77U U78C,0.03

row,Variant,self-cleavage
1,C11U A13U G53A U67A A77U,0.11
2,C12A A20U G70U U78C,0.1
3,C12A G24C U25C U60G,0.07
4,C12A U43C U69A U80C,0.27
5,C12A A13C A18G C23A U26C U66C,0.09
6,C12A U54C G61A U76C,0.78
7,C12A G24C A56G A57G C62G A65G,0.1
8,C11U A21G A28C U74C A77G,0.08
9,C11U A13G C50U A56U,0.12
10,C11U A15U U51C A57G U60A U80A,0.06
11,C12G U43C C44G,0.16
12,C11A A13G A35G A45G U60C U67C,0.13
13,C11A U31C A35U A56G U74C,0.05
14,G10U G33A C44U A45U U48C A56G U74A,0.03
15,C11G A18G A45G U54C,0.29
16,C11G A20G U74G,0.2
17,C11U A45U U51A,0.25
18,C11U C12U U51C,0.38
19,C11G A18C U69C,0.05
20,C12G C23G A64U U76C U80C,0.04
21,C11G A28G U31C,0.08
22,C11A A13U A64U U76C C79G,0.07
23,C12G A13G C23G C32A A57G,0.06
24,G10A U41C U43C A77G,0.05

row,Variant,self-cleavage
1,C11A U43C C44A,0.31
2,C11A U41C A65G,0.2
3,C12G A21G A56G,0.17
4,C11G G52A U58C A77U,0.38
5,C11A A28G A57G,0.23
6,C11U U26C U67C,0.09
7,C12A U25C A35G A57C,0.14
8,C11G A20U U41A U54C U72A A77U,0.07
9,C11U A20G C32U,0.43
10,C12G G33A A35G G36A A45G A47G,0.07
11,C11A A28G U41C C44U,0.19
12,G10U C17U C68A,0.19
13,C12U A18G U43A U67A,0.4
14,C12A A45U A65G,0.22
15,C11G C14U U60C,0.1
16,G10U C14U A35G A45U U48C G63A,0.07
17,C11G A21U C27G A47G U67C,0.04
18,C12U A18U C44U U49G U76A,0.07
19,C11G A28C U48C,0.26
20,C11A C12U A18U A64G U72A,0.19
21,G10A U43A U76C,0.29
22,C11A A18G C38U U60A U72C,0.04
23,G10A U26A A28G U49C U69C G73U,0.03
24,G10A U26C A28U C39A U41A U48C U76C,0.04

row,Variant,self-cleavage
1,C11G U25C A64G A77C,0.09
2,G10C U31C U41C U69G U72A,0.06
3,C11G C14A C37U A64G U69C,0.06
4,C11G A15G U26A C40G,0.04
5,C11U A13G U25G A45G U58C G70U,0.02
6,G10C A35G U58C U72C,0.2
7,C11U A45C A64U,0.08
8,C11A U25C G63A U66C,0.06
9,G10U A13G U26C A35U U43C,0.28
10,C11U U31G U48C A57G U66A,0.05
11,C12G A18U U80C,0.41
12,G10U A18C U31C G55U A57G U60C,0.1
13,C11U U25A U26C A28G U48C U60C,0.03
14,G10A U49A A65G C79U,0.05
15,G10C U48C U54A C79G,0.09
16,C11A A13G U25A U69A,0.06
17,C12A U54C U72C,1.16
18,G10C U41A A45U U49A G73U,0.05
19,C11G A13U A45G U54C,0.26
20,C11U A21G U25C C32G U72A,0.24
21,C11U U25C U60A U80A,0.19
22,C12A U26C G52A U54C U80C,0.66
23,G10C A56U A65G U69C,0.12
24,C11G C14U A15G G24A A57G,0.08

row,Variant,self-cleavage
1,C12A A13C U72C,1.06
2,C12G U31G U49C,0.14
3,C11U A15U A18G A64G,0.19
4,C11G A13U A20C C39A U72C C81G,0.04
5,G10C G30A A57G U58A A64G U67C,0.13
6,C12G G42A C44G U60A,0.19
7,C12A A13U U25C G36U U43A A64U,0.07
8,G10C U26C U31C A45G A65G,0.17
9,G10C A18G A64G,0.12
10,G10U U26C C38G U69A,0.35
11,C11G U26C U67G,0.16
12,C12A A15G U48C U58A U76A U80C,0.36
13,C11G U25G U43A A45C U49A,0.06
14,C11G U31A U69A,0.33
15,C11U A13G U31C U43C A56U G63A U66C,0.12
16,C11A A18G U31A C32G U58C U69A,0.04
17,C12U A18U U26C A45U A47C A65G U67C,0.04
18,C11A U25C A57G A75G,0.04
19,C12U A15G A28G A57G U74A,0.48
20,C11G C39G C62G U72C,0.02
21,C12A A28G U51C U69G U78C,0.2
22,C12U A15U U54C A57U U80C,0.79
23,G10U A28G A57G,0.19
24,C12A A65U U66C,0.39

row,Variant,self-cleavage
1,G10A U41A U54C U60C,0.1
2,C11G G19A U26A C32U C39A,0.08
3,C11A A15G A45G U49C U51A G63C,0.21
4,C11U U26A C27U U41C A56U U60A,0.08
5,C11U A57G G70A,0.19
6,C11A A13G A20U C40A U49C U72C U80C,0.03
7,C11U A15G U78C,0.52
8,C12U A15C U41C U66C U72C U76C,0.76
9,C11U A64G A65G U78C,0.11
10,C11U A20U A28C,0.12
11,C11U C23U G24C U60A A64U U72C,0.05
12,C11G A13G A15C U31C U43G U58A U74A,0
13,C12U A13U U43C U48A U49C A64U U67C,0.04
14,C12A U41C U51G A56G U78C,0.77
15,G10A U25C U69C U74C U80A,0.13
16,C11A A18U U60C A65G,0
17,G10A U26C U72C U80C,0.21
18,C11A A28G A45U C79G,0.24
19,C12U A13G A18U,0.27
20,C11G U25C G42U U54G U66A G70U,0.06
21,C12A A13G A18G U26A U51G,0.28
22,C12A A35G U41C,0.71
23,C11G G55A A56G A65G U80C,0.08
